From PubChem BioAssay AID602310 (National Center for Advancing Translational Sciences (NCATS), 2012)
Among all 410,000 compounds or so, about 310 (0.076%) were called active. The inconclusive results got no clear call from the source; some entries with a clear call stand among them for comparison. Calls follow the shape of the dose curve; as a rule, active = well fitted curve in the direction sought with a large enough effect; inconclusive = small, poorly fitted or top-dose-only effect; inactive = flat fitted curve, though single readings scatter. Potencies beside an inconclusive call are fits to weak or partial responses and may not hold up.

molecular target: DNA dC->dU-editing enzyme APOBEC-3G (Homo sapiens) (UniProt Q9HC16); test: qHTS for Inhibitors of Vif-A3G Interactions: qHTS; settings: HeLa A3G-eYFP + Vif (tagged APOBEC3G with the HIV-1 protein that degrades it), YFP fluorescence, overnight; series mostly up to 46.1 µM; activity, negative = active: at the top concentration; also: nearly all actives have a fitted effect of over 60% in size;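 as to activity, negative = active: hits raise eYFP signal because A3G escapes Vif-driven loss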
UniProt Q9HC16, sequence (Q9HC16 whole entry, looked up): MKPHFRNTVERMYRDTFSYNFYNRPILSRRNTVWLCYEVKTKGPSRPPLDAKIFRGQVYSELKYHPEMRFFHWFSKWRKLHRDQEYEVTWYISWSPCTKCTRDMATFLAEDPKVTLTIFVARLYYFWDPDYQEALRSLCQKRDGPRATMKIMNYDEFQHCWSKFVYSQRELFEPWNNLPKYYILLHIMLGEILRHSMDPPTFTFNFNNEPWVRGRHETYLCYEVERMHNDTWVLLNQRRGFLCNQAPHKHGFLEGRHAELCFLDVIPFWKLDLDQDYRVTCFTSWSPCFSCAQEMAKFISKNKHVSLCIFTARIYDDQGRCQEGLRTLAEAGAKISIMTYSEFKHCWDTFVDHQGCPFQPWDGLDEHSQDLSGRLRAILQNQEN
Outline: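 HeLa cells stably expressing Vif and C-terminally eYFP-tagged A3G, seeded overnight at 37 deg C, then exposed to compound by pintool overnight at 37 deg C. Rise in yellow fluorescence (Ex 488/Em 500-530, Acumen) marks blocked Vif-driven A3G degradation.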
% is scaled to controls: 0 for no effect and ±100 for the full control effect; potency is read from the fitted curve at half-maximal effect; tags tell the direction and shape of the fitted curve.

Row | SMILES | Potency | activity, negative = active
1 | CCN(CC)c1nc(C=Cc2ccc(N(C)C)cc2)c2nccnc2n1 | inconclusive: 1.58 µM [inhibitor, full curve, poor fit] | –
2 | Cc1ccc(NC(=O)CSC2=NCCN2)cc1 | inconclusive: 22.4 µM [inhibitor, single point] | –
3 | O=C(Nc1ccc(F)cc1F)c1cc(S(=O)(=O)N2CCCCC2)c[nH]1 | inconclusive: 10 µM [inhibitor, partial curve, poor fit] | –
4 | Cc1cc(C)cc(NC(=O)Cn2c(=O)oc3cc(S(=O)(=O)N4CCC(C)CC4)ccc32)c1 | inconclusive: 12.6 µM [inhibitor, partial curve, poor fit] | –
5 | COc1cc(C)c(S(=O)(=O)N2CCOCC2)cc1C | – | inactive: 2.2%
6 | O=C(COc1ccc(C(=O)c2ccc(F)cc2)cc1)NCc1ccc(F)cc1 | inconclusive: 2 µM [inhibitor, full curve, poor fit] | –
7 | Cc1ccc(CN2CCC(N3CC(C)OC(C)C3)CC2)cc1 (stereo unspecified) | – | inactive: -2.08%
8 | COc1ccccc1/C=C/C=N/NC(=O)c1cc(-c2ccc(C)o2)[nH]n1 | inconclusive: 7.08 µM [inhibitor, partial curve, poor fit] | –
9 | CCOc1ccc(CCNC(=O)C2CCC(=O)N2C2CCCCC2)cc1OCC (stereo unspecified) | – | inactive: 0.549%
10 | COc1ccc(C(=O)C(CN2CCOCC2)c2ccccc2)cc1F (stereo unspecified) | inconclusive: 28.2 µM [inhibitor, single point] | –
11 | COc1ccccc1N(C)S(=O)(=O)c1ccc(C(=O)OCC(=O)N2CCC2)cc1 | inconclusive: 7.08 µM [inhibitor, partial curve] | –
12 | CCOC1=C2[C@H](c3ccccc3Cl)N(S(=O)(=O)c3ccc(C)cc3)C[C@H]2C(C#N)(C#N)C(C#N)(C#N)C1 | inconclusive: 22.4 µM [inhibitor, single point] | –
13 | CCN(CC)S(=O)(=O)c1ccc2c(c1)c(=O)c(C(=O)NCc1ccccc1Cl)cn2C | inconclusive: 25.1 µM [inhibitor, single point] | –
14 | Cc1cc(C)c2nc3sc(=Cc4ccc(-c5ccccc5C(=O)O)o4)c(=O)n3c2c1 | inconclusive: 2.82 µM [inhibitor, full curve] | –
15 | O=C1NC(=Nc2ccc(O)cc2)S/C1=C\C=C\c1ccco1 | inconclusive: 2.51 µM [inhibitor, full curve, poor fit] | –
16 | CC(=O)Oc1ccccc1C(=O)Nc1ccccc1 | – | inactive: -0.247%
17 | Cc1ccc(OCCNCc2ccccc2)c(C)c1 | – | inactive: -1.77%
18 | Cn1nnnc1Sc1ncnc2scc(-c3cccc(S(C)(=O)=O)c3)c12 | inconclusive: 10 µM [inhibitor, partial curve, poor fit] | –
19 | CC1(S(=O)(=O)O)CC(=O)c2ccccc2C1=O (stereo unspecified) | inconclusive: 2.82 µM [inhibitor, partial curve, poor fit] | –
20 | COc1cc(Cl)c(C)cc1NC(=S)NN | inconclusive: 17.8 µM [inhibitor, single point] | –
21 | O=C(Nc1ccc(NC(=O)c2ccc([N+](=O)[O-])o2)cc1Cl)c1ccco1 | – | inactive: -11.6%
22 | CC1CCN(c2ccc3c(c2)S(=O)(=O)c2cccc(C(=O)NCc4cccc(F)c4)c2C3=O)CC1 | active: 20 µM | –

Row | SMILES | Potency | activity, negative = active
23 | O=C(CNc1ccc2ccccc2c1)N/N=C/C=C/c1cccc([N+](=O)[O-])c1 | inconclusive: 17.8 µM [inhibitor, single point] | –
24 | O=c1c2c3nc4ccccc4nc3n(/N=C/c3ccccn3)c2ncn1-c1ccccc1 | inconclusive: 17.8 µM [inhibitor, partial curve, poor fit] | –
25 | CCOC(=O)C1Nc2ccc(OC(F)(F)F)cc2C2C=CCC12 (stereo unspecified) | – | inactive: -7.8%
26 | O=C(c1cccc(F)c1)N1CCN(c2cccc(Cl)c2)CC1 | inconclusive: 7.08 µM [inhibitor, full curve, poor fit] | –
27 | CC(C)(CCO)NC(=S)NC1CC2C=CC1C2 (stereo unspecified) | – | inactive: -0.127%
28 | COc1cc(-c2cc(NC(C)=O)c3ncc(-c4ccc(F)cc4)n3c2)cc(OC)c1OC | inconclusive: 22.4 µM [inhibitor, single point] | –
29 | O=C(OCCN1C(=O)c2cccc3c(N4CCOCC4)ccc(c23)C1=O)c1ccccc1Cl | inconclusive: 3.98 µM [inhibitor, single point] | –
30 | COc1ccc(C(C[N+](=O)[O-])c2c(-c3ccccc3)cc3ccccn23)c(OC)c1 (stereo unspecified) | inconclusive: 12.6 µM [inhibitor, partial curve] | –
31 | COc1ccc(OC)c(-c2nnc3n2N=C(c2ccc(OC)c(OC)c2)CS3)c1 | inconclusive: 0.316 µM [inhibitor, full curve, poor fit] | –
32 | O=C(Nc1ccncc1)C1CCCN(S(=O)(=O)c2cccc3cccnc23)C1 (stereo unspecified) | inconclusive: 1.41 µM [inhibitor, full curve, poor fit] | –
33 | CN(C(=O)/C=C/c1ccc([N+](=O)[O-])s1)c1ccccc1 | inconclusive: 8.91 µM [inhibitor, partial curve] | –
34 | CCCNc1nc(=S)n(-c2ccccc2)c(C)c1C(C)=O | – | inactive: 6.29%
35 | Cc1ccc(-c2nnc(Nc3ccc4c(c3)OCO4)c3ccccc23)cc1S(=O)(=O)NCCO | inconclusive: 25.1 µM [inhibitor, single point] | –
36 | O=C(O)c1cc(S(=O)(=O)Nc2ccc3c(c2)OCCO3)c(Cl)cc1Cl | inconclusive: 35.5 µM [inhibitor, single point] | –
37 | O=C1c2cccc3c([N+](=O)[O-])ccc(c23)C(=O)N1O | active: 11.2 µM | –
38 | O=[N+]([O-])c1ccc(C=NNc2ccccc2)cc1 | inconclusive: 12.6 µM [inhibitor, partial curve, poor fit] | –
39 | CN1CCc2c(sc(NC(=O)c3ccc(S(=O)(=O)N4CCCCCC4)cc3)c2C(N)=O)C1 | inconclusive: 22.4 µM [inhibitor, partial curve, poor fit] | –
40 | C/C(=N\NC(=O)c1cccc2ccccc12)c1cccnc1 | inconclusive: 25.1 µM [inhibitor, single point] | –
41 | Cc1onc(-c2ccccc2)c1C(=O)OCCOc1ccccc1F | – | inactive: -1.69%
42 | Cc1ccc([C@H]2C[C@H](n3cc(C4CC4)nn3)[C@@H](O)CN2CC2CCCCC2)cc1 | inconclusive: 31.6 µM [inhibitor, single point] | –
43 | O=C(C[C@@H]1C/C=C/CC[C@H](Cc2ccc(F)cc2)C(=O)OC[C@@H](Cc2ccccc2)NC1=O)N[C@H](CO)Cc1ccccc1 | inconclusive: 7.08 µM [inhibitor, full curve] | –
44 | N#CC1=C(N)C(C#N)(C#N)[C@H](c2c(F)cccc2F)[C@H]2CC3(CC=C12)OCCO3 | active: 12.6 µM | –

Row | SMILES | Potency | activity, negative = active
45 | Cc1cccc(N(CC(=O)NC2CCCC2)C(=O)CCC(=O)Nc2cc(C)on2)c1 | – | inactive: -4.15%
46 | COc1cccc(/C=N/Nc2ccccc2C(=O)O)c1O | inconclusive: 35.5 µM [inhibitor, single point] | –
47 | C#CCOCCOCCOCCNc1nc(N2CCN(C(=O)C([C@@H](C)O)n3cc([C@@H](N)CCCCN)nn3)CC2)nc(N2CCN(C(=O)[C@H](CCCN=C(N)N)n3cc(C(N)[C@@H](C)CC)nn3)CC2)n1 (stereo partly specified) | – | inactive: 2.55%
48 | O=C(NCc1cccnc1)/C(=C/c1ccc(-c2ccc(Cl)cc2)o1)S(=O)(=O)c1ccccc1 | inconclusive: 12.6 µM [inhibitor, partial curve] | –
49 | COc1cccc(/C=C2\C(=O)C(=O)c3ccccc32)c1 | inconclusive: 35.5 µM [inhibitor, single point] | –
50 | COc1ccc(-c2sc3ccccc3c2C#Cc2cncn2C)cc1 | inconclusive: 20 µM [inhibitor, single point] | –
51 | CCCNC(=O)N(C)C[C@@H]1Oc2ncc(-c3ccncc3)cc2C(=O)N([C@H](C)CO)C[C@@H]1C | – | inactive: 0.195%
52 | O=C(N/N=C/c1cccc(O)c1)c1cc(-c2ccccc2)nc2ccccc12 | inconclusive: 25.1 µM [inhibitor, single point] | –
53 | COc1ccccc1N(C(=O)CCl)c1cn(C(C)=O)c2ccccc12 | inconclusive: 35.5 µM [inhibitor, single point] | –
54 | Cc1ccc(N2C(=O)C(CC(=O)Nc3cccc(F)c3)N(CCc3ccccc3F)C2=O)cc1 (stereo unspecified) | – | inactive: 1.08%
55 | COc1cccc(/C=C/c2nc(C#N)c(NC3CCCCC3)o2)c1 | – | inactive: -2.18%
56 | COc1ccc(-c2cnc3c(NC=O)cc(-c4ccccc4)cn23)cc1OC | active: 1.78 µM | –
57 | O=C(CSc1nnc2sc3ccccc3n12)NCc1ccco1 | inconclusive: 20 µM [inhibitor, single point] | –
58 | Cc1ccc2oc(C(=O)NCc3ncc(C)[nH]3)c(C)c2c1 | inconclusive: 11.2 µM [inhibitor, partial curve] | –
59 | CCOC(=O)c1ccc(N2CCN(c3ccccc3OC)CC2)c(NC(=O)Nc2ccc(CC)cc2)c1 | – | inactive: 6.85%
60 | O=c1c2ccccc2nnn1CSc1nnnn1-c1ccc(O)cc1 | – | inactive: 5.92%
61 | Cn1cc(S(=O)(=O)N2CCCC2)cc1C(=O)N1CCN(c2cccc(Cl)c2)CC1 | inconclusive: 10 µM [inhibitor, partial curve] | –
62 | COc1ccc(NC(=S)NNc2ccc([N+](=O)[O-])cc2S(=O)(=O)Nc2ccc(C)cc2C)cc1 | – | inactive: -5.26%
63 | CCC(Sc1nnc2c(n1)[nH]c1ccccc12)C(=O)Nc1ccccc1OC (stereo unspecified) | – | inactive: -2.04%
64 | O=C(O)c1ccccc1N/N=C\c1ccnc2ccccc12 | inconclusive: 11.2 µM [inhibitor, partial curve] | –
65 | Cc1ccc(C(=O)Nc2ccc3c(c2)OCCO3)cc1S(=O)(=O)N1CCOCC1 | inconclusive: 35.5 µM [inhibitor, partial curve, poor fit] | –
66 | Cc1ccc(S(=O)(=O)NCCNS(=O)(=O)c2ccc(C)cc2)cc1 | – | inactive: -0.386%
